{"source": "PubChem BioAssay AID1345082", "about": "(National Center for Advancing Translational Sciences (NCATS), 2018)", "note": "In all, about 94,000 compounds went through this assay and about 4,000 (4.3%) were called active. This list was built around the results that the source calls inconclusive (neither active nor inactive); the mix of calls is not that of the screen. Calls follow the shape of the dose curve; as a rule, active = well fitted inhibition curve with a large enough effect; inconclusive = small, poorly fitted or top-dose-only effect; inactive = no such curve, though single readings can be large or run the other way. Potencies of inconclusive entries are doubtful fits and often do not repeat. Potency is read from the fitted curve at half-maximal effect; tags tell the direction and shape of the fitted curve.", "data": [{"assay": "Cytotoxic Profiling in NIH 3T3 Cell Line of Diverse Libraries Using Quantitative High-Throughput Screening; also: nearly all actives have a fitted effect of over 55% in size", "settings": "NIH 3T3 viability, CellTiter-Glo ATP luminescence, 48-72 h; series mostly up to 96.7 µM", "summary_of_the_method": "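Luminescent ATP readout (CellTiter-Glo, 10 min RT) after 48 or 72 hr compound exposure of NIH 3T3 cells seeded at 400 cells/well in 1536-well format; quantitative HTS.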", "values": [{"smiles": "CC(C)(C)C1CCC2(CC1)NC(=O)N(CC(=O)Nc1ccccc1C(F)(F)F)C2=O", "note": "(centres undefined)", "Potency": "inconclusive: 70.8 µM [inhibitor, single point]"}, {"smiles": "CCNC(=O)CCc1c(CC)nn(-c2ccccc2)c1Oc1ccccc1F", "Potency": "inconclusive: 44.7 µM [inhibitor, partial curve, poor fit]"}, {"smiles": "CCCN1CCCC2(Cc3ccccc3CN(C(=O)Cc3ccccc3)C2)C1", "note": "(centres undefined)", "Potency": "inconclusive: 70.8 µM [inhibitor, single point]"}, {"smiles": "Cc1ccc(CCNC(=O)c2cc3c(N4CCSCC4)nc(C)cn3n2)cc1", "Potency": "inconclusive: 70.8 µM [inhibitor, single point]"}, {"smiles": "O=C(c1nc2c(o1)CCN(Cc1ccccc1F)CC2)N1CCOCC1", "Potency": "inconclusive: 79.4 µM [inhibitor, partial curve, poor fit]"}, {"smiles": "COc1cccc(-c2cn3cc(C(=O)NCc4ccccc4F)nc3s2)c1", "Potency": "inactive"}, {"smiles": "COc1ccc(CN2Cc3cc(NC(=O)c4ccc(F)cc4)ccc3OC(C)C2=O)c(OC)c1", "note": "(centres undefined)", "Potency": "inactive"}, {"smiles": "COc1ccc(NC(=O)N2CCc3c(c4ccccc4n3C)C2)cc1", "Potency": "inconclusive: 70.8 µM [inhibitor, single point]"}, {"smiles": "COc1cccc(CN2CCc3c(cc(C(=O)NCCN4CCCCC4)n3C)C2)c1", "Potency": "inconclusive: 70.8 µM [inhibitor, single point]"}, {"smiles": "COc1ccccc1Nc1ccnc(N2CCC(NC(=O)c3ccccc3C)CC2)n1", "Potency": "inconclusive: 44.7 µM [inhibitor, partial curve, poor fit]"}, {"smiles": "CC(=O)Nc1cc(-c2ccncc2)nn1-c1ccccc1", "Potency": "inconclusive: 112 µM [inhibitor, partial curve, poor fit]"}, {"smiles": "CCOC(=O)CC(=O)N1CCC2(CC1)[C@H](C(=O)OCC)[C@@H](O)C(=O)N2Cc1ccccc1", "Potency": "inconclusive: 56.2 µM [inhibitor, partial curve, poor fit]"}, {"smiles": "CC1CCN(c2ccc(CNC(=O)c3ccc4c(c3)C(O)CCCCCN4C)cc2)CC1", "note": "(centres undefined)", "Potency": "active: 39.8 µM"}, {"smiles": "c1ccc(CN2CCc3c(sc4ncnc(N5CCOCC5)c34)C2)cc1", "Potency": "inconclusive: 39.8 µM [inhibitor, partial curve, poor fit]"}, {"smiles": "CC(C)c1ccc(C(=O)N2CCC3(CC2)OC(=O)N(CC2CC2)C3(C)c2cccnc2)cc1", "note": "(centres undefined)", "Potency": "inconclusive: 31.6 µM [inhibitor, partial curve, poor fit]"}, {"smiles": "CN1CC(O)CN([S+](=O)([O-])c2cccs2)CC1=O", "note": "(centres undefined)", "Potency": "inconclusive: 70.8 µM [inhibitor, single point]"}, {"smiles": "CCN1c2cc(C(=O)Nc3ccc(Cl)cc3)ccc2C(=O)N2CCCCCC21", "note": "(centres undefined)", "Potency": "inconclusive: 44.7 µM [inhibitor, partial curve, poor fit]"}, {"smiles": "CC(=O)N1CCN(C(=O)C2CCCN2Cc2ccc(-c3cc(C)cc(C)c3)cc2)CC1", "note": "(centres undefined)", "Potency": "inconclusive: 70.8 µM [inhibitor, single point]"}, {"smiles": "COc1ccc(NC(=O)c2cnc3c(c2)N(C(=O)Cc2ccc(C(C)C)cc2)CCC3)cc1OC", "Potency": "inconclusive: 44.7 µM [inhibitor, partial curve, poor fit]"}, {"smiles": "O=c1c2nc(-c3ccccc3)ccc2ncn1Cc1ccccn1", "Potency": "active: 79.4 µM"}, {"smiles": "Cc1nc(-c2cnccn2)n(CC(=O)Nc2ccc3c(c2)OCCO3)c(=O)c1C", "Potency": "inactive"}, {"smiles": "COc1ncccc1Nc1cnc2ccc(N3CCOCC3)nn12", "Potency": "inconclusive: 39.8 µM [inhibitor, partial curve, poor fit]"}, {"smiles": "C=CCNC(=O)N[C@H]1C[C@H]2C(=O)Nc3ccc(-c4cccs4)cc3C(=O)N2C1", "Potency": "inconclusive: 112 µM [inhibitor, partial curve, poor fit]"}, {"smiles": "OC[C@@H]1CN(Cc2ccco2)C[C@H]1c1ccccn1", "Potency": "inactive"}, {"smiles": "COc1cccc(NC(=O)NC[C@H]2O[C@@H](CO)[C@@H](O)[C@H]2N(C)CCc2ccccc2)c1", "Potency": "inactive"}, {"smiles": "COc1ccc(-c2ccnc3nc(C4CCC4)nn23)c(F)c1", "Potency": "inconclusive: 70.8 µM [inhibitor, single point]"}, {"smiles": "CNC(=O)C1(C)CN(Cc2ccccc2)Cc2ccc(NCC(C)C)nc21", "note": "(centres undefined)", "Potency": "inconclusive: 20 µM [inhibitor, full curve, poor fit]"}, {"smiles": "Cc1cc(C)c(CNC(=O)c2nc(-c3cccc(N4CCOCC4)c3)cc3[nH]ccc23)c(=O)[nH]1", "Potency": "inconclusive: 31.6 µM [inhibitor, partial curve]"}, {"smiles": "CC(C)OCCCNC(=O)CC1=C2CCCCC2N(C(C)C)C1=O", "note": "(centres undefined)", "Potency": "inactive"}, {"smiles": "O=C(NC[C@H]1COCc2nc3cc(C(F)(F)F)ccc3n21)C1CC1", "Potency": "inactive"}, {"smiles": "COCC(=O)NC[C@@H]1C=C(C)[C@H](Cc2nc3ccccc3[nH]2)C[C@H]1C(C)C", "Potency": "inconclusive: 112 µM [inhibitor, single point]"}, {"smiles": "CC(C)CCN(C)C1CCOc2ccccc21", "note": "(centres undefined)", "Potency": "inactive"}, {"smiles": "Cc1ccc(OC2(C(=O)N(C)Cc3n[nH]c4c3CCCC4)CCNCC2)cc1", "Potency": "inconclusive: 89.1 µM [inhibitor, single point]"}, {"smiles": "CS(=O)(=O)Nc1ccc(C2(C(=O)NCc3ccc(F)c(Cl)c3)CCCCC2)cc1", "Potency": "inconclusive: 44.7 µM [inhibitor, partial curve, poor fit]"}, {"smiles": "Cn1ncc2c(C(=O)NC3CC3)cc(-c3cc(Cl)cc(Cl)c3)nc21", "Potency": "inactive"}, {"smiles": "CNC(=O)[C@H]1CN(C(=O)Cc2cccs2)[C@]2(C)C(=O)N(CCOC)c3ccccc3[C@H]12", "Potency": "inconclusive: 35.5 µM [inhibitor, partial curve, poor fit]"}, {"smiles": "COc1ccccc1-c1cccc(C(=O)N2CCN(C(=O)c3ccc(F)cc3)CC2)c1", "Potency": "inconclusive: 39.8 µM [inhibitor, partial curve]"}, {"smiles": "COc1ccc(CCc2nc3nccc(-c4ccc5c(c4)OCCCO5)n3n2)cc1OC", "Potency": "inconclusive: 70.8 µM [inhibitor, single point]"}, {"smiles": "Cc1ccc(-c2cn3cc(C(=O)NCc4cccc(C(F)(F)F)c4)nc3s2)cc1", "Potency": "inactive"}, {"smiles": "COC(=O)N1CCn2c(nn(-c3ccc(C)cc3)c2=O)C1", "Potency": "inactive"}, {"smiles": "CCOc1ccc(C(=O)N2CCCN(c3cc(-c4ccc(F)cc4)[nH]n3)CC2)cc1", "Potency": "inconclusive: 44.7 µM [inhibitor, partial curve, poor fit]"}, {"smiles": "O=C(NC1CCN(c2cc(-c3ccccc3)[nH]n2)CC1)c1ccc2c(c1)OCO2", "Potency": "inconclusive: 44.7 µM [inhibitor, partial curve, poor fit]"}, {"smiles": "COc1ccc(C2(C(=O)N3CCCCCC3c3nc(-c4cccnc4)no3)CC2)cc1", "note": "(centres undefined)", "Potency": "inconclusive: 50.1 µM [inhibitor, partial curve, poor fit]"}, {"smiles": "COc1cccc(-c2cc(C(=O)NC3CCCC3)c3cnn(C)c3n2)c1", "Potency": "inconclusive: 50.1 µM [inhibitor, partial curve, poor fit]"}, {"smiles": "COCCOCC(=O)N1CCOc2ccc(CN3CCc4ccccc4C3)cc2C1", "Potency": "inactive"}, {"smiles": "Cc1cnc(C2CC2)n1C1CCN(Cc2cn(C)c3ccccc23)C1", "note": "(centres undefined)", "Potency": "inconclusive: 50.1 µM [inhibitor, partial curve, poor fit]"}, {"smiles": "C[C@@H]1C(=O)O[C@H]2[C@H]1CC[C@@]1(C)Cc3sc(NC(=O)Nc4ccc(Oc5ccccc5)cc4)nc3[C@@H](C)[C@H]21", "Potency": "inconclusive: 89.1 µM [inhibitor, single point]"}, {"smiles": "O=C1NCCCCCCN(Cc2ccncc2)[C@@H]2CN(S(=O)(=O)c3cccc(F)c3)CC[C@H]12", "Potency": "inactive"}, {"smiles": "Cc1ccc(C(=O)N2CCc3nc(C4CC4)nc(-c4ccc(O)cc4)c3C2)cc1", "Potency": "inconclusive: 70.8 µM [inhibitor, single point]"}, {"smiles": "CCOC(=O)C1CCN(C(=O)C2CCc3nnc(CNC(C)=O)n32)CC1", "note": "(centres undefined)", "Potency": "inactive"}, {"smiles": "CC(C)CC(=O)NC1CCCc2c1[nH]c1ccc(Cl)cc21", "note": "(centres undefined)", "Potency": "active: 20 µM"}, {"smiles": "Cc1ccccc1C(=O)NC1CCN(Cc2ccc(-c3ccsc3)cc2)C1", "note": "(centres undefined)", "Potency": "inconclusive: 70.8 µM [inhibitor, single point]"}, {"smiles": "CCOCC(=O)N1CCCC(c2nc(CCOCc3ccccc3)no2)C1", "note": "(centres undefined)", "Potency": "inactive"}, {"smiles": "Cn1nccc1CN1CCCC(c2nn(-c3ccc(Cl)cc3)c(=O)[nH]2)C1", "note": "(centres undefined)", "Potency": "inconclusive: 44.7 µM [inhibitor, partial curve, poor fit]"}, {"smiles": "COc1cccc(C(=O)N2CC(Oc3ccc(-c4nc(-c5ccccc5)no4)cc3)C2)c1", "Potency": "inconclusive: 15.8 µM [inhibitor, full curve]"}, {"smiles": "CNC(=O)c1cc(C2CC2)nc2onc(C3CCN(C(=O)Cc4cccc(Cl)c4)C3)c12", "note": "(centres undefined)", "Potency": "inactive"}, {"smiles": "CCC1(N2CCN(C)CC2)CCN(S(=O)(=O)c2ccccc2)C1", "note": "(centres undefined)", "Potency": "inactive"}, {"smiles": "CCOc1ccc(S(=O)(=O)N2CCC3(CC2)CN(C)CC3COC)cc1", "note": "(centres undefined)", "Potency": "inconclusive: 44.7 µM [inhibitor, partial curve, poor fit]"}, {"smiles": "Cn1ncc2c(C(=O)NCc3ccccc3)cc(-c3ccc(C(F)(F)F)cc3)nc21", "Potency": "inconclusive: 50.1 µM [inhibitor, partial curve, poor fit]"}, {"smiles": "O=C(N[C@H]1CO[C@H]2[C@@H]1OC[C@@H]2Nc1nccc(-c2cccs2)n1)c1ccc(C(F)(F)F)cc1", "Potency": "inconclusive: 39.8 µM [inhibitor, partial curve]"}, {"smiles": "Cn1c(C(=O)NCC2CC2)nc2nc(-c3ccccc3)c(Cl)cc21", "Potency": "inconclusive: 8.91 µM [inhibitor, full curve]"}, {"smiles": "COc1ccccc1-c1cc(C(=O)NC2CC2)nn2cnnc12", "Potency": "inactive"}, {"smiles": "O=C(O)CC1(CC(=O)N2CC[C@H]3COC(=O)N3c3cc(F)ccc3C2)CCCC1", "Potency": "inactive"}, {"smiles": "CC1CCN(C(=O)CC(c2ccc(Cl)cc2)c2cn(C)c3ccccc23)CC1", "note": "(centres undefined)", "Potency": "inconclusive: 50.1 µM [inhibitor, partial curve, poor fit]"}]}]}
